According to PubChem BioAssay AID624417 (National Center for Advancing Translational Sciences (NCATS), 2012):
Hit rate of the full screen: of about 410,000 compounds, about 6,400 (1.6%) were called active. This list was built around the results that the source calls inconclusive (neither active nor inactive); the mix of calls is not that of the screen. The call rests on the fitted dose curve; in most records, active means well fitted inhibition curve with a large enough effect; inconclusive means small, poorly fitted or top-dose-only effect; inactive means no such curve, though single readings can be large or run the other way. Potencies of inconclusive entries are left out as doubtful fits.

target: Glucagon-like peptide 1 receptor (Homo sapiens) (UniProt P43220); assay: qHTS of GLP-1 Receptor Inverse Agonists (Inhibition Mode); conditions: HEK293 GLP-1R CRE-luciferase, luminescence, 24 h, GLP-1R form is constitutively active; activity change, negative = inhibition: at 38.3 µM (top of the series) unless noted; further: nearly all actives have a fitted effect of over 55% in size
Chain of UniProt P43220 (P43220 whole entry, looked up): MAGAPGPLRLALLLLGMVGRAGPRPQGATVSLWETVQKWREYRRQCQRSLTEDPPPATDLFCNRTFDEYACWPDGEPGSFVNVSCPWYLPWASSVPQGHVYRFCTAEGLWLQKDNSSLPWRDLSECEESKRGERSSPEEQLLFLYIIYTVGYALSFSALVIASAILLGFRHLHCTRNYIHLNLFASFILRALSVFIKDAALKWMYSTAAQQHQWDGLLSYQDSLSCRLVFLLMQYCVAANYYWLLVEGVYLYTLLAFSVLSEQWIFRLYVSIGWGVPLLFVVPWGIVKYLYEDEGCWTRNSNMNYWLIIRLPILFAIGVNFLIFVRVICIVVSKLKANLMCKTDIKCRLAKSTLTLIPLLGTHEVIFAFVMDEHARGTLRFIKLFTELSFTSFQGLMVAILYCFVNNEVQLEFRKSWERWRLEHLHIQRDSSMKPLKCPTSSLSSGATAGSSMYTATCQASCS
How it was run: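 Inverse agonists were sought by their lowering of basal cAMP reporter luciferase output in HEK293 cells stably carrying constitutively active human GLP-1R, after 24 h compound treatment.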
On the % scale 0 is the no-effect control and ±100 the full control effect; potency means the concentration at half of the fitted maximal effect; tags describe the fitted curve by direction and shape.

| Compound | Potency | activity change, negative = inhibition |
| --- | --- | --- |
| Cc1ccc2cc(CN(Cc3ccco3)C(=O)NCc3ccccc3)c(=O)[nH]c2c1C | inconclusive [inhibitor, partial curve, poor fit] |  |
| Cc1ccc(C)c(C(=O)COC(=O)c2c(-c3ccccc3)noc2C)c1 | inconclusive [inhibitor, partial curve, poor fit] |  |
| CCOc1cc(CNc2ccc(OC)cc2)cc(Br)c1OCC(=O)NC(C)(C)C | inconclusive [inhibitor, partial curve, poor fit] |  |
| CC(C)C(=O)Nc1nc(-c2ccc([N+](=O)[O-])cc2)cs1 | inconclusive [inhibitor, single point] |  |
| O=C(CN1C(=O)NC(c2ccccc2)(c2ccccc2)C1=O)NCc1cccs1 | inconclusive [inhibitor, single point] |  |
| O=C(NCCNC(=O)c1ccccc1)c1ccccc1 | inactive |  |
| Cc1ccc(CN2CCSc3ccc(C(=O)Nc4ccc(C)cc4)cc32)cc1 | inactive |  |
| O=S(=O)(Cc1cc(Oc2ccccc2)nc(-c2ccccc2)n1)c1ccccc1 | inconclusive [inhibitor, partial curve] |  |
| COc1ccc(S(=O)(=O)Nc2ccc(-n3cccc3)cc2)cc1 |  | inactive: -1.44% [at 7.66 µM] |
| Cc1cccc(OCCCC(=O)Nc2ccccc2C(F)(F)F)c1 | inconclusive [inhibitor, partial curve, poor fit] |  |
| CCN1CCc2nc(NC(=O)C(c3ccccc3)c3ccccc3)sc2C1 | inconclusive [inhibitor, full curve, poor fit] |  |
| COc1ccc(OC)c(/C=N/NC(=O)CCN2CCN(C(c3ccccc3)c3ccccc3)CC2)c1 | inconclusive [inhibitor, partial curve, poor fit] |  |
| CC(C)COc1ccc(C(=O)OC2CC(C)(C)OCC2CN(C)C)cc1 (stereo not drawn) | inconclusive [inhibitor, partial curve, poor fit] |  |
| O=S(=O)(c1ccc(Cl)s1)N1CCN(Cc2ccccc2)CC1 | inconclusive [inhibitor, single point] |  |
| Cc1ccc(Cl)cc1N1CCN(C(=O)c2cc(S(=O)(=O)N3CCCC3)c[nH]2)CC1 | inconclusive [inhibitor, single point] |  |
| OC(c1ccccc1)c1ncc(-c2ccc(Oc3ccccc3)cc2)[nH]1 (stereo not drawn) | inconclusive [inhibitor, partial curve, poor fit] |  |
| COc1cc(/C(C)=N\NC(N)=S)cc(OC)c1OC | inactive |  |
| Cc1ccc(S(=O)(=O)N(C)C)cc1NC(=O)COC(=O)CCC1CCCCC1 | inconclusive [inhibitor, single point] |  |
| Cc1cc(C(=O)Nc2ccc(Br)cn2)sc1C | inconclusive [inhibitor, single point] |  |
| CSc1nnc(CNS(=O)(=O)c2ccc(Br)cc2)n1C | inconclusive [inhibitor, partial curve, poor fit] |  |
| FC(F)C(F)(F)Oc1cccc(-c2n[nH]c(=S)n2Cc2ccccc2)c1 | inconclusive [inhibitor, partial curve, poor fit] |  |

| Compound | Potency | activity change, negative = inhibition |
| --- | --- | --- |
| Cc1ccccc1OCC(=O)Nc1ccc(S(=O)(=O)N2CCCC2)cc1 | inconclusive [inhibitor, single point] |  |
| COc1cc(C(CCN2CCN(c3ccccc3)CC2)c2c(OC)cc(OC)c3c(C)cc(=O)oc23)cc(OC)c1OC (stereo not drawn) | inconclusive [inhibitor, single point] |  |
| O=C(Nc1ccc(NC(=O)c2ccc([N+](=O)[O-])o2)cc1Cl)c1ccco1 | inactive |  |
| COc1ccc(S(=O)(=O)N(CC(=O)O)c2ccccn2)cc1 | inactive |  |
| O=C(Nc1cccc(Cl)c1)OC1CCCCc2cccnc21 (stereo not drawn) | inconclusive [inhibitor, partial curve, poor fit] |  |
| COc1ccc(C(=O)N/N=C/c2c(CO)cnc(C)c2O)cc1 | inconclusive [inhibitor, single point] |  |
| Cc1ccc(S(=O)(=O)/C(C#N)=C/c2c(N3CCN(Cc4ccccc4)CC3)nc3ccccn3c2=O)cc1 | inactive |  |
| O=C1NC(=Nc2ccc(O)cc2)S/C1=C\C=C\c1ccco1 | inconclusive [inhibitor, full curve, poor fit] |  |
| Cc1ccc(NS(=O)(=O)c2c(C)[nH]c(C)c2C(=O)N2CCCC2)cc1Cl | inconclusive [inhibitor, full curve] |  |
| CCOc1cc(NC(=S)Nc2cccc(C)c2)c(OCC)cc1NC(=O)CC(C)C | inactive |  |
| CCOC(=O)CC(=O)CSc1nc2c(sc(=S)n2-c2ccc(OCC)cc2)c(=O)[nH]1 | inconclusive [inhibitor, single point] |  |
| CCOC(=O)c1nnc2cc(-c3ccc(Br)cc3)nn2c1C | inactive |  |
| CC(C)(C)OC(=O)NCCCC[C@H](NC(=O)c1[nH]cnc1C(=O)Nc1ccccc1)C(=O)OC(C)(C)C | inconclusive [inhibitor, single point] |  |
| Cc1c(C)n(C)c2ccc(C(=O)NCCCN(C)C3CCCCC3)cc12 | inconclusive [inhibitor, partial curve, poor fit] |  |
| COC(=O)Cc1ccc(N(Cc2ccccc2F)S(=O)(=O)c2ccc(Cl)cc2)cc1 | inconclusive [inhibitor, partial curve, poor fit] |  |
| Cc1cc(/C=N\NC(=O)COc2cccc3cccnc23)c(C)n1-c1ccc(Br)cc1 | inconclusive [inhibitor, single point] |  |
| COc1cc(/C=C/C(=O)Nc2nnc(C(C)(C)C)s2)cc(OC)c1OC | inactive |  |
| O=C(Nc1ccc2c(c1)CCC2)c1cc(S(=O)(=O)Nc2ccc(F)cc2)c(Cl)cc1Cl | inconclusive [inhibitor, partial curve, poor fit] |  |
| CN(CC(=O)Nc1c(Cl)cccc1Cl)C(=O)c1cc(-c2cccs2)nn1-c1ccccc1 | inconclusive [inhibitor, partial curve, poor fit] |  |
| Cc1ccc(OCCNCc2ccccc2)c(C)c1 | inconclusive [inhibitor, single point] |  |
| Cc1cccc(Cn2c(C(C)O)nc3ccccc32)c1 (stereo not drawn) | inconclusive [inhibitor, single point] |  |

| Compound | Potency | activity change, negative = inhibition |
| --- | --- | --- |
| Cc1cccc(NNC(=S)Nc2ccccc2)c1 | active: 5.62 µM |  |
| CS(=O)(=O)c1nc([N+](=O)[O-])nn1CCCc1ccccc1 | inconclusive [inhibitor, single point] |  |
| Cc1nn(Cc2noc(C(=O)NC(C)c3ccccc3)n2)c(C)c1Br (stereo not drawn) | inconclusive [inhibitor, single point] |  |
| O=C(Cn1cc(COc2ccc(Br)cc2)nn1)c1ccc(O)cc1 | inconclusive [inhibitor, partial curve, poor fit] |  |
| CC(=O)OCC1=C(C(=O)O)N2C(=O)C(NC(=O)c3ccc(COc4ccc(Cl)cc4)o3)C2SC1 (stereo not drawn) | inactive |  |
| Cc1ccc(S(=O)(=O)N2CCOCC2)cc1NC(=O)CNCc1ccccc1Cl | inactive |  |
| COCCn1c(SCc2ccc(OC)c(F)c2)nc2ccccc2c1=O | inconclusive [inhibitor, partial curve, poor fit] |  |
| CC(=O)NC(c1ccc(C(C)C)cc1)c1ccc2cccnc2c1O (stereo not drawn) | inconclusive [inhibitor, full curve, poor fit] |  |
| CCCOc1cccc(NC(=O)OC2CCN(C)CC2)c1 | inactive |  |
| COc1ccc(C)cc1NC(=O)COCc1cc(-c2ccc(F)cc2)on1 | inconclusive [inhibitor, single point] |  |
| Cn1cc(CN2CCC(CO)(CCCc3ccccc3)CC2)c(-c2ccccc2)n1 | inconclusive [inhibitor, partial curve, poor fit] |  |
| C[C@@H]1CCCCO[C@H](CN(C)C)[C@H](C)CN([C@@H](C)CO)C(=O)c2cc(NC(=O)Nc3ccc(C(F)(F)F)cc3)ccc2O1 | inconclusive [inhibitor, single point] |  |
| COc1cccc(CN2CCC2(C)C(=O)Nc2cccc(Oc3ccccc3)c2)c1OC (stereo not drawn) | inconclusive [inhibitor, full curve] |  |
| CCCCC1Cc2[nH][nH]c(=O)c2C(c2ccc(Cl)cc2)O1 (stereo not drawn) | inconclusive [inhibitor, single point] |  |
| Cc1ccc(CN2CCCN(Cc3c(C)cc(C)cc3C)S2(=O)=O)cc1 | inconclusive [inhibitor, single point] |  |
| Cc1ccccc1-n1c(-c2ccc3ccccc3n2)n[nH]c1=S | inactive |  |
| CCOC(=O)C1=C[C@@H](C(C)C)N(S(=O)(=O)c2ccc(C)cc2)[C@H]1c1ccc(C(F)(F)F)cc1 | inconclusive [inhibitor, partial curve, poor fit] |  |
| Cc1cccc(-c2noc(Cc3ccc(Cl)cc3)n2)c1 | inconclusive [inhibitor, single point] |  |
| C=C(C)C1Cc2c(C)nn(-c3ccccn3)c2C1 (stereo not drawn) | inconclusive [inhibitor, partial curve, poor fit] |  |
| CC(C)OC(=O)c1cc2c(ccn2C)n1CC(=O)N(Cc1ccccc1)c1ccc(F)cc1 | inconclusive [inhibitor, partial curve, poor fit] |  |
| CN(C)c1ccc(/C=c2\sc3n(c2=O)CCCN=3)cc1 | inconclusive [inhibitor, partial curve] |  |
